# Measurements as given in the supplement of paper PMC11417369.
# The list shows a part of the results.
# Test system: PfSIP2 AP2 domain 1 (GST-tagged)
# Test: gcPBM binding intensity (ln(normalized median fluorescence intensity)); higher = stronger DNA binding
# In short: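 DNA-binding domains from P. falciparum, fused to GST and produced in E. coli, were put on an Agilent 4 × 180k double-stranded probe array for 1 h in 1× PBS holding 1% milk, 0.2 mg/ml BSA, 0.5% salmon testes DNA and 0.03% Triton X-100. Probes were primer-extended, 36 bp long and drawn from intergenic genomic regions, with negative controls included. After Alexa488 anti-GST antibody detection and a 488 nm scan, binding intensity was set as the highest Masliner-normalised natural-log median intensity across replicate spots of either probe orientation.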
row,Sequence,gcPBM binding intensity (ln)
1,AAAGGAATATAATGATGTACACAAATATATATACAT [XGTACX_site5347],7.06
2,AACTAATATAATAATACATGCACATAAAAATATATA [TGCATGCA_site606],8.89
3,CACGCATACGGACACACACACACACCGATATATATA [CACACA_site4521],7.44
4,TATTTTTTTATTTGTGCATGTCATATTTAAACATAA [TGCATGCA_site1006],7.83
5,TATAAATTTGTTGTTGCATGCAGTATACCAAAAAAA [TGCATGCA_site445],7.46
6,ATTTGTAATTTATATTCACACATTCAAAAAAATGAG [CACACA_site6057],6.84
7,AAAAATATAATATAATGTACACAAAAAAAAAAAAAT [XGTACX_site4914],7.13
8,TAAAATGTAATCTGAACACACATATTTTTTTAATAT [CACACA_site1768],6.81
9,AATAGCCCATATGGAATACACACTGAAAATAAAAAA [CACACA_site3373],6.92
10,CCATAAAAAGGATACACACACACACCGACATATATA [CACACA_site4653],7.04
11,GTATTATATTTCAACTGTACGTAAAACTATTAAAAT [XGTACX_site3679],7.6
12,TTCATTTAGCAAGAATGTACTTATATATATATATAT [XGTACX_site3401],8.81
13,ATAAAGCCATACAATACACACATTTTACATGGGGGT [CACACA_site9072],7.72
14,CAAAAAAATGTGAAGGCATGCAAATATGTAAAATAA [TGCATGCA_site921],6.83
15,CTTTCTTATTTGAACGCATGCATTTGTACCTTTTAT [TGCATGCA_site671],7.1
16,TATATACAAAATGCCTGTACATATATATTTATTTAT [XGTACX_site761],7.04
17,CATGCAAAAAATTCCACACACACACCCACATATAAA [CACACA_site1229],7.14
18,AATTATTTATCGGAATGTACATAAAAACATATGTAT [XGTACX_site7443],7.17
19,AATAATATCATTTAGACACACACTCTTACAATATGT [CACACA_site8832],6.97
20,ACCTACATAACATACACACGCATATATATAATTTTA [CACACA_site2847],7.61
21,TATTTAATAAAGAAATAAAAATAAAGAAAAAAAAAA [CACACA_negctrl_site74],6.59
22,TATTATATCGAACACTGTACTTTTTTATTCAACCTA [XGTACX_site493],6.92
23,GCCTTTTTATTTAGAACACACACAAAAAAAAAAAAA [CACACA_site8520],7.56

row,Sequence,gcPBM binding intensity (ln)
1,AATAATAAATATATATATATATATATATATATATTT [CACACA_negctrl_site786],7.62
2,ATATATATATATATAGTGCAAATATCTTCTTTATAA,9.74
3,TAATAAACCAAACTAAACAATATATCAAAAAGCACA [CACACA_negctrl_site269],7.47
4,TACAAATACATTACATGTACATATTTAATAATATCA [XGTACX_site2075],6.89
5,TTTTCAATTAATAATACACACATGTATATATTATTA [CACACA_site3311],6.95
6,AAGAAAAATATATATATAAATAAATAAATATATATA [TGCATGCA_negctrl_site330],6.98
7,TTTGAAAAGTATGAGGTGCAAAAAATGTAATGAAAT,10.2
8,TATATTATTATGCATAGTACGTACTGTGATAAGAAT [XGTACX_site2956],7.42
9,TTTTTCTGTCGTTGTTGTACTTGAGGAGTAACAATT [XGTACX_site7852],7.35
10,CATTTTAAAACAGACACACACCAAAAAAAAAAAAAA [CACACA_site6259],6.99
11,GTATATAAGTATATATGTACATATATTTTATATATA [XGTACX_site4745],7.14
12,AATACGAAGGATAAGAGTACTAATTAAATAAATGAA [XGTACX_site523],7.02
13,ATATAAGAATAAATAGTGCAAAATAAATGATTATTT,8.09
14,TTTTTTTTTTTTTTGGTGCGATCTTTTAAATGATCC,8.37
15,TTTTATAATTTAAAATAATGAAACTTCTTTCTATTT [TGCATGCA_negctrl_site324],6.74
16,TTTCTGATATTTTTATATTTTCTTATATATATATAT [GTGCAC_negctrl_site652],9.3
17,TTTAAATTTTAATATGCACACAAAATGTTATATTAA [CACACA_site8015],7.55
18,AATGTATTAAAATTACGTACATATGCACATTTTATA [XGTACX_site5046],7.52
19,TTTTTTATTTTGTGCACACACATAAAAATATAAATA [CACACA_site6497],9.8
20,TACTCTTTCCAGAAGTGTACATAGAAATAATTACAT [XGTACX_site2668],7.03
21,TAAAAATAATATATTTGTACATATGTGTATACATAA [XGTACX_site741],6.97
22,TATAAATACATACATACACACATATATATATATATT [CACACA_site6116],7.21
23,TCCTAAAAAAAAAAAAAAAATGAAAAAGGAAAAAAA [CACACA_negctrl_site1646],6.6

row,Sequence,gcPBM binding intensity (ln)
1,CAAGCACAGAAACACACACACACACCGACACAGACA [CACACA_site4359],7.19
2,AAAAAAAAAAAAAAAAGTACTAAATGTAAAAGAATA [XGTACX_site2164],7.53
3,TAGTATTATTATTATGCACACAAAAATATTTATACA [CACACA_site9219],7.81
4,TTTTTTTTTTTTTTTTGTACATAATTATATATTTAC [XGTACX_site7540],7.08
5,AGCATTTCTTTTACATGTACATAATATTTTTAATAA [XGTACX_site1968],7.43
6,TATATATGTATGTATGCATGCCCTTTTTTAAAAAAA [TGCATGCA_site434],7.1
7,AAAAAAAAAAAAAAAAAAATAAAAAATAAATAAATA [CACACA_negctrl_site1498],7.9
8,AAGAAAAAACAAACATGTACACATAATTTAGTTTTT [XGTACX_site3121],6.81
9,ATATGCTAATAAAATTGTACATATTATTCATATTGT [XGTACX_site2344],6.96
10,ATTTTTCCTCTCTTTTGTACTTATATATATATATAT [XGTACX_site7405],9.67
11,ATAAATACTTTTTGGTGTACACTTTTAAATGAAAAA [XGTACX_site3042],8.04
12,CAATTAAAGAAAAACAGTACGTGTATCAAACATCCT [XGTACX_site8990],6.82
13,TGACTACATAAAATGACACACACAAACTTTAAAATT [CACACA_site9151],6.9
14,ATATATTTTTAGCACAGTACAATATAATTAAATATA [XGTACX_site6779],7.03
15,AAAAGTTGTTTATAATGTACAAGGTAGAAAAAAACA [XGTACX_site1454],7.28
16,TAAATGGATTGTTCAGGTACACATAAATATGATATT [XGTACX_site6963],6.85
17,ATATTATATAATAATGCATGCACCTTATTTTCATTT [TGCATGCA_site405],11.3
18,AACAAAATAAAAATAACACACACATTTATATATATA [CACACA_site8313],8.11
19,ATTATATTATTTTAAAGTACACACATATATTAATAT [XGTACX_site4769],7.24
20,TTTTTATTATTTAAATGTACATATAAATATATATAT [XGTACX_site6870],8.05
21,AAGAAGAAACGGAAAAGTACAAAGAAGAAATAAGTA [XGTACX_site3680],6.85
22,CTTACAGACATATATACACACATGTATATTTTATAT [CACACA_site549],6.87
23,TTTTCTTTTCTCTTCTTTTTCTCCCATTATTAATCT [XGTACX_negctrl_site406],6.7

row,Sequence,gcPBM binding intensity (ln)
1,ATGTTTTTAATTTATTGTACATTAATTTGTATTATT [XGTACX_site253],7.25
2,GAGGATGCCTATGGCACACATTATAAAACTGTCGCT [CACACA_site4322],6.57
3,CATAAAATTGTGAAGTGTACATATTTTTAAATATAA [XGTACX_site8986],7.06
4,ATAACTTTATTTTCCTGTACACACATTTGACATATT [XGTACX_site7192],7.38
5,ATATATAATATAAGATGTACAATAAAATCTATATAT [XGTACX_site546],7.01
6,AGAAATATCTAATTGTGTACTCAAGAAAAAGTTACG [XGTACX_site372],7.22
7,GAATAAAAATTTTAATGTACATATTTTTTATTTATA [XGTACX_site8935],7.08
8,ATATTTTATATGTTCACACATACATAAACATATTTT [CACACA_site4948],7.15
9,GGTAGTTATTATCTCCGTACTTATAAAGAAAAAAGG [XGTACX_site4674],7.18
10,TACAAATATATAAAATGTACATATATATACATATTA [XGTACX_site3029],6.92
11,TTTATTTTCATATGAACACACATATAAATATTATAA [CACACA_site7172],7.15
12,AAAAAATATAAAAAAAGTACACAAAAACTACAAAAA [XGTACX_site2677],6.96
13,AAAAAGAGGAAAAAGATAAAGAAATTAAAGGAGAGA [CACACA_negctrl_site423],6.69
14,TTTAATCATTTTATTTGTACTCATAAAAAATATAAT [XGTACX_site5537],7.29
15,TCTGTAAACATATTCACACACATAAATTCGCATATA [CACACA_site1866],6.95
16,ACAAAATAATTGTTTACACACCCATTTGTAATTTTA [CACACA_site3615],6.88
17,TATCATTGTTCATGCTTGCACTTTTGTTACTGTTCC [GTGCAC_site9425],8.06
18,GAAAATTTATATTGCACACATAGGGAATAAAAAAAA [CACACA_site2146],7.24
19,AAAATGAAATATGTTATATATATATATATATATATA [CACACA_negctrl_site1752],9.72
20,TGTATGAAAATAAATGCATGCCAAATATATATATAT [TGCATGCA_site132],8.82
